# The list shows a part of the results.
# T1: UNK ZnF1-3 (human, UniProt Q9C0B0 31-174)
# T1 sequence: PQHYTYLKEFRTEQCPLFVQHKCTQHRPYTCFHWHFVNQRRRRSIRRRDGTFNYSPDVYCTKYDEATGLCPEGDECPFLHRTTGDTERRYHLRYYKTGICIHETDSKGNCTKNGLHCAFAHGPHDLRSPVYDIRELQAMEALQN
# B1: chr20:32439910:32439911:+_ENSG00000101421_ENST00000217402|hu_hu|FALSE|FALSE (ssRNA)
# RNA: GGGAGUUCUACAGUCCGACGAUCAGGGACUGUUUCGGGUCCACUGAUUUCCAGCAAAUUCUUGUCUAGUUCCUCCUGUUCUAGUUCUUCUAAUUCCGCCAUGAGCUCAUCCUCGUCAAACUCUUCUCCAAACCCUACAGGUUUCAACAGAGGAUUGAGCAUCA
# B2: chr1:151374018:151374019:+_ENSG00000159377_ENST00000290541|hu_hu|motif|central (ssRNA)
# RNA: GGGAGUUCUACAGUCCGACGAUCAAAGCCACUGAUCAUGUGGGCAAUAUCCCAGUUGGUCUCUGUAGACAAUGGUCCCUCGGUUUCAACACCUUUUUCGGUGACAGUGGCGAUUUGAAACCGGUUGUAAGAACGGGCAUCUCGCAACAGAGGAUUGAGCAUCA
# B3: chr2:73037555:73037556:-_ENSMUSG00000027108_ENSMUST00000028517|mus_hu|FALSE|FALSE (ssRNA)
# RNA: GGGAGUUCUACAGUCCGACGAUCAAAAAGCAUUCCCCAGGCCCUGCCCAUUGUGAGCUCCUUUCACAAGGCCAGCAAUAUCCACCACAUUUAGAAAGGCAGGAAUUUUGCUUGCUGGUUUGUGGUAUUGACAAAGAAAGUCAACAACAGAGGAUUGAGCAUCA
# B4: chr18:58099821:58099822:+_ENSMUSG00000024597_ENSMUST00000115366|mus_mus|FALSE|FALSE (ssRNA)
# RNA: GGGAGUUCUACAGUCCGACGAUCAUUUUCUUUUUUUGGCUUGGUGUUGAUAUCUCCAAGGACCAUGAUAUCAGAGAAGUCUAUCCGGAAUUUACUCAAUAAAGUAGCCAUCGCUCUCCGGUCAUGGUCUAUUCUGUUUAUUUUCAACAGAGGAUUGAGCAUCA
# B5: chr1:122009976:122009977:-_ENSMUSG00000026385_ENSMUST00000027634|mus_hu|motif|central (ssRNA)
# RNA: GGGAGUUCUACAGUCCGACGAUCUUUAAUUGAUUUCAGAUAAAAACUACUCAAGGAAAGUCAGUAAUCGUUUUAGCCCCGGAUCUGUUAGAGCCGUAUGGUGAGCAGCCUUGAGUAGCUGGUUUAACUGGUUAUUUUCCCGAACAACAGAGGAUUGAGCAUCA
# B6: chr1:95363388:95363389:-_ENSG00000117519_ENST00000538964|hu_hu|motif|central (ssRNA)
# RNA: GGGAGUUCUACAGUCCGACGAUCUCUGGGGUAGUCAUCCUGGUACUCGCCAUGAUACUCAUCAGGGUAUUCUGCCUGAUAAUCACGGUCACUGAUUUCCGAACCAUUUGUUCCUGUUCCUUGGCUUCCGUUGUGAAUGACAGGCAACAGAGGAUUGAGCAUCA
# Molecular target: T1, UNK ZnF1-3
# Assay: nsRBNS (natural sequence RNA bind-n-seq); RBNS binding buffer (assumed for nsRBNS): 25 mM Tris pH 7.5, 150 mM KCl, 3 mM MgCl2, 0.01% Triton X-100, 500 ug/ml BSA, 20 U/ml SUPERase-In, 4 C; UNK is unkempt and MSI1 is Musashi-1; names of the RNAs are library labels; protein concentration not given here; high values mean tight binding
row,Binder,binding signal
1,B1,0.353 enrichment R
2,B2,0.597 enrichment R
3,B3,0.869 enrichment R
4,B4,0.451 enrichment R
5,B5,0.739 enrichment R
6,B6,0.456 enrichment R

# From paper PMC12136788
